In PubChem BioAssay AID720506 (National Center for Advancing Translational Sciences (NCATS), 2013):
In all, about 2,300 compounds went through this assay and about 95 (4%) were called active. The shares of active, inactive and inconclusive entries below differ from those in the screen. Calls follow the shape of the dose curve; as a rule, active = well fitted activation curve with a large enough effect; inconclusive = small, poorly fitted or top-dose-only effect; inactive = flat fitted curve, though single readings scatter. Where the call is inconclusive, the potency comes from a doubtful curve fit.

These compounds were tested against D(3) dopamine receptor (Homo sapiens) (UniProt P35462) (assay: qHTS of D3 Dopamine Receptor Agonist: D3 Dopamine Receptor B-arrestin Agonist Confirmatory Assay). Details: DiscoveRx D3 beta-arrestin cells, luminescence, 90 min; series mostly up to 76.9 µM.
Method in brief: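 Luminescence readout (20 sec exposure) after 30 - 60 min room-temperature incubation with DiscoveRx reagent; compounds applied to DiscoveRx D3 cells for 90 minutes at 37 degrees C beforehand, dopamine as control.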
Also: nearly all actives have a fitted effect of over 70% in size.
Potency is read from the fitted curve at half-maximal effect; tags tell the direction and shape of the fitted curve.

Sequence of UniProt P35462 (P35462 whole entry, looked up): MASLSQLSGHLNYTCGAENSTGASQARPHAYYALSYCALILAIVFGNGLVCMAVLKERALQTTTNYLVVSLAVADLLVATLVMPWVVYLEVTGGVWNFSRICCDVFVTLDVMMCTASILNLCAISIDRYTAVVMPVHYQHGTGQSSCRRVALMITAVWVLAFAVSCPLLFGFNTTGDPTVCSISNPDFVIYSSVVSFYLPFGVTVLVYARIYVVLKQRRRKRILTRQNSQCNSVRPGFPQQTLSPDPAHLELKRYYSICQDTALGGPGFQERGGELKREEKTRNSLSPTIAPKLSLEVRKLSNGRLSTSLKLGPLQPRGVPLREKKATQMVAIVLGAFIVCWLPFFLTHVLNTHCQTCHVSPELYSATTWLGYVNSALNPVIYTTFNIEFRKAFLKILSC

SMILES | Potency
Cc1ccccc1C(=O)NCC(=O)NNC(=O)CCN1CCN(c2ccccc2)CC1 | inconclusive: 0.708 µM [activator, full curve, poor fit]
CC(C(=O)Nc1cccc(S(=O)(=O)N2CCOCC2)c1)N1CCN(C/C=C/c2ccccc2)CC1 (configuration not stated) | inconclusive: 11.2 µM [activator, partial curve]
COc1cc(CN2CCN(c3ncccn3)CC2)cc(OC)c1 | inconclusive: 1.78 µM [activator, full curve]
O=C(CN1CCN(c2ccccc2F)CC1)c1ccc2cc[nH]c2c1 | inactive
CNC[C@H](O)c1cccc(O)c1 | inactive
CCCC(=O)Nc1ccc2c(c1)nc(CCN1CCN(c3ccccn3)CC1)n2C | inconclusive: 0.631 µM [activator, full curve, poor fit]
COc1ccc(C(=O)N2CCN(CCCc3ccccc3)CC2)cc1OC | inconclusive: 1 µM [activator, full curve]
O=C(O)c1ccc(/C=C2\SC(=S)N(Nc3ccccc3)C2=O)cc1 | inconclusive: 39.8 µM [activator, single point]
COc1ccc(CN2CCN(C(=O)c3ccco3)CC2)cc1OC | inconclusive: 15.8 µM [activator, full curve]
CCCCN(CC)CCCNC(=S)Nc1ccc2nc(N3CCN(CC)CC3)cc(C)c2c1 | inconclusive: 0.355 µM [activator, full curve]
CCn1c2ccccc2c2cc(CN3CCN(C(=O)c4ccco4)CC3)ccc21 | inconclusive: 35.5 µM [activator, partial curve]
Nc1ncnc2c1ncn2C1OC(C(=O)NC2CC2)C(O)C1O (configuration not stated) | inactive
CCOC(=O)N1CCN(CC(=O)Nc2c(C(=O)OC)[nH]c3cc(C)ccc23)CC1 | inconclusive: 20 µM [activator, full curve]
Cc1cccc(CN2CCN(c3ncccn3)CC2)c1 | inconclusive: 2.51 µM [activator, full curve]
CCOc1ccccc1C(=O)NCC(=O)NNC(=O)CN(C)S(=O)(=O)c1ccc(Cl)cc1 | inconclusive: 44.7 µM [activator, full curve]
Cc1cccc(C(=O)NCCN2CCN(c3ccccc3)CC2)c1 | inconclusive: 0.112 µM [activator, full curve]
O=C(CN1CCN(c2ccccc2)CC1)N1CCN(c2ccccc2)CC1 | inconclusive: 25.1 µM [activator, partial curve, poor fit]
O=C(c1cccs1)N1CCN(Cc2ccc3c(c2)OCO3)CC1 | inconclusive: 0.141 µM [activator, full curve, poor fit]
Cc1cc(C(=O)NNC(=O)c2ccc(C(F)(F)F)cc2)no1 | inactive
CN(C)S(=O)(=O)c1cccc(CNCC2COc3ccccc3O2)c1 (configuration not stated) | inconclusive: 25.1 µM [activator, partial curve, poor fit]
CCOc1ccc(NC(=O)CCN2CCN(c3ccccc3F)CC2)cc1 | inconclusive: 0.1 µM [activator, full curve]
COc1ccc(/C=N/Nc2nnc(C)n2N)cc1OC(C)=O | inconclusive: 39.8 µM [activator, partial curve, poor fit]
COc1ccc(C(=O)O)cc1NC(=S)NC(=O)CSc1ccc(Cl)cc1 | inactive
OC(COc1ccc2c(c1)OCO2)CN1CCN(c2ccccc2)CC1 (configuration not stated) | inconclusive: 0.355 µM [activator, full curve]

SMILES | Potency
O=C(CCN1CCN(c2ccccc2F)CC1)Nc1cccc(F)c1 | inconclusive: 0.316 µM [activator, full curve]
C=CCC1Cc2c(cccc2[N+](=O)[O-])C(CC=C)N1 (configuration not stated) | inconclusive: 10 µM [activator, full curve, poor fit]
O=C(NCCN1CCN(c2ccccc2)CC1)Nc1cccc(Cl)c1 | inconclusive: 0.178 µM [activator, full curve, poor fit]
COc1ccc([N+](=O)[O-])c(OC)c1C(=O)Nc1ccc(F)cc1F | inactive
Cc1[nH]nc2c1C(c1ccsc1)C1=C(CC(C)(C)CC1=O)N2 (configuration not stated) | inactive
CCCOc1ccc(C(=O)N2CCN(c3ccc(N)cc3Cl)CC2)cc1 | inactive
CC1(C)C2CC[C@]1(C)C(=O)N(CCCCN1CCN(c3ccccn3)CC1)C2=O | inconclusive: 0.1 µM [activator, full curve]
COCc1c(C(=O)N2CCN(CCOc3ccccc3)CC2)oc2ccccc12 | active: 0.316 µM
C/C(=C\c1ccccc1)CN1CCN(c2ccccc2F)CC1 | inactive
FC(F)Sc1ccc(NC(=S)N2CCN(c3ccccn3)CC2)cc1 | inconclusive: 35.5 µM [activator, partial curve]
COc1ccccc1CCNC(C)CCc1ccc(O)cc1 (configuration not stated) | inconclusive: 5.01 µM [activator, partial curve]
CCC(=O)c1ccc(OCC(O)CN2CCN(c3ccc(F)cc3)CC2)cc1 (configuration not stated) | inconclusive: 1.78 µM [activator, full curve, poor fit]
COc1ccccc1CN1CCN(C(=O)c2ccco2)CC1 | inconclusive: 5.62 µM [activator, full curve]
O=C(OCc1nc2ccccc2[nH]1)C1CCCCC1 | inactive
O=C(NCCN1CCN(c2ccccc2)CC1)Nc1ccccc1Cl | inconclusive: 56.2 µM [activator, partial curve, poor fit]
COc1cc(CN2CCN(c3ccccc3F)CC2)cc(OC)c1O | inconclusive: 3.55 µM [activator, partial curve, poor fit]
CCOC(=O)Nc1ccc(S(=O)(=O)Nc2nccc(C)n2)cc1 | inactive
Cn1c(CCN2CCN(c3ccccn3)CC2)nc2cc(NC(=O)COc3ccccc3)ccc21 | inconclusive: 2.24 µM [activator, full curve]
CC(=O)Nc1ccc(NC(=O)CN2CCN(c3ccccn3)CC2)cc1 | inconclusive: 50.1 µM [activator, full curve, poor fit]
COc1cc(OC)c2ccc(=O)oc2c1C(CCN1CCN(c2ccccc2)CC1)c1ccc(N(C)C)cc1 (configuration not stated) | inactive
CN(C)S(=O)(=O)c1ccc(Cl)c(NC(=O)CN2CCc3ccccc3C2)c1 | active: 10 µM
OC(CSc1ccccc1Cl)CN1CCN(c2ccccc2F)CC1 (configuration not stated) | active: 44.7 µM
CN=c1scc(-c2ccc(F)cc2)n1/N=C/c1ccc(O)c(O)c1 | active: 12.6 µM
COCCN=c1scc(-c2ccco2)n1/N=C/c1ccc(O)c(O)c1O | active: 35.5 µM

SMILES | Potency
Cc1nn(-c2ccccc2)c(C)c1/C=N/N1CCN(c2ccccn2)CC1 | inconclusive: 35.5 µM [activator, partial curve]
Cc1ccc(CSCC(=O)N2CCN(Cc3ccc4c(c3)OCO4)CC2)cc1 | inactive
Cc1cc(C)n2nc(C(=O)Nc3ccn(Cc4ccccc4C)n3)cc2n1 | inactive
O=C(CNCc1cccs1)Nc1cc(S(=O)(=O)N2CCCC2)ccc1Cl | active: 17.8 µM
COc1ccccc1N1CCN(CCCCOc2ccc(C)cc2C)CC1 | inactive
COC(=O)c1[nH]c2ccccc2c1NC(=O)C(C)N1CCN(C(=O)c2ccco2)CC1 (configuration not stated) | inconclusive: 56.2 µM [activator, partial curve, poor fit]
COC(=O)Cc1ccc(NC(=S)N2CCN(c3cccc(O)c3)CC2)cc1 | active: 28.2 µM
CC(C)(C)C(=O)OCc1nc(-c2ccc(O)c(O)c2)cs1 | active: 11.2 µM
Cc1ccc(NC(=O)CN2CCN(c3ccccn3)CC2)cc1S(=O)(=O)N(C)C | active: 1.41 µM
COc1ccccc1N1CCN(CC(=O)Nc2c(C)n[nH]c2C)CC1 | inactive
Cc1cccc(OCCCC(=O)NNC(=O)CCN2CCN(c3ccccc3)CC2)c1 | inconclusive: 14.1 µM [activator, partial curve, poor fit]
Cc1cc(=O)oc(C)c1C(=O)NCCCN1CCN(c2ccccc2F)CC1 | inconclusive: 0.126 µM [activator, full curve]
O=C(c1ccco1)N1CCN(Cc2ccccc2F)CC1 | inconclusive: 15.8 µM [activator, partial curve]
OC(COc1ccc(Br)cc1)CN1CCN(c2ccccc2)CC1 (configuration not stated) | inconclusive: 0.355 µM [activator, full curve]
Nc1nc(N2CCN(Cc3ccccc3)CC2)n[nH]1 | inconclusive: 3.16 µM [activator, full curve]
Nc1nonc1-n1nnc(C(=O)N/N=C/c2ccc3c(c2)OCO3)c1-c1ccccc1 | inconclusive: 3.98 µM [activator, full curve, poor fit]
Cc1ccc(OCC(O)CN2CCN(c3ccccn3)CC2)c(C)c1 (configuration not stated) | inconclusive: 1.58 µM [activator, full curve]
Cc1sc(NC(=O)c2ccco2)c(CN2CCN(c3ccccc3)CC2)c1C | inactive
COc1ccc(/C(O)=C/c2nc3ccc(C(=O)NCCc4cccc(C)c4)cc3[nH]c2=O)cc1OC | inactive
CCOC(=O)C1CCCN(C(=O)Cn2nc(C)n3c(cc4c(OC)cccc43)c2=O)C1 (configuration not stated) | inconclusive: 28.2 µM [activator, single point]
OC(c1cc(-c2ccc(C(F)(F)F)cc2)nc(C(F)(F)F)c1)C1CCCCN1 (configuration not stated) | inconclusive: 39.8 µM [activator, partial curve, poor fit]
COc1cccc(-n2cc(CNCc3cn(C)nc3-c3ccccc3F)cn2)c1 | active: 6.31 µM
COc1ccc(C(=O)NCC(=O)N/N=C/c2cn[nH]c2-c2ccccc2)cc1 | inactive
COc1ccc(-c2nc(CN3CCN(C(=O)c4ccco4)CC3)c(C)o2)c(F)c1 | inconclusive: 17.8 µM [activator, full curve]
